Data as given in the supplement of paper PMC8728848.
The other results are listed elsewhere or left out.

What was measured:
Assay in all cases: glycan array binding signal (z-score within array); higher = stronger binding
Details in all cases: glycan notation: IUPAC condensed, linker removed
[1] = target: Gal(b1-3)[Neu5Ac(a2-6)]GalNAc
How it was run: (§1)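 Negative Z-scores can be read as non-binding. The Z-score is calculated within each array and then averaged across arrays of one protein sequence at different concentrations or buffers and across linkers. Arrays, 3228 in all, were curated from the Consortium for Functional Glycomics database and kept only where the protein sequence was available.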

[2] = target: Gal(b1-3)[Neu5Ac(a2-6)]GlcNAc
How it was run: as §1

[3] = target: Gal(b1-3)[Neu5Ac(a2-6)]GlcNAc(a1-4)Gal(b1-4)Glc
How it was run: as §1

[4] = target: Gal(b1-3)[Neu5Ac(b2-6)]GlcNAc
How it was run: as §1

[5] = target: Gal(b1-4)GalNAc(a1-3)[Fuc(a1-2)]Gal(b1-4)GlcNAc
How it was run: as §1

[6] = target: Gal(b1-4)GalNAc(b1-3)[Fuc(a1-2)]Gal(b1-4)GlcNAc
How it was run: as §1

Gal(b1-4)Glc = target: Gal(b1-4)Glc
How it was run: as §1

Gal(b1-4)Glc6S = target: Gal(b1-4)Glc6S
How it was run: as §1

Gal(b1-4)GlcNAc = target: Gal(b1-4)GlcNAc
How it was run: as §1

[7] = target: Gal(b1-4)GlcNAc(b1-2)Man(a1-3)[Gal(b1-4)GlcNAc(b1-2)Man(a1-6)]Man(b1-4)GlcNAc(b1-4)GlcNAc
How it was run: as §1

[8] = target: Gal(b1-4)GlcNAc(b1-3)Gal(b1-4)Glc
How it was run: as §1

[9] = target: Gal(b1-4)GlcNAc(b1-3)Gal(b1-4)GlcNAc
How it was run: as §1

[10] = target: Gal(b1-4)GlcNAc(b1-3)Gal(b1-4)GlcNAc(b1-3)Gal(b1-4)GlcNAc
How it was run: as §1

[11] = target: Gal(b1-4)GlcNAc(b1-3)Gal(b1-4)[Fuc(a1-3)]GlcNAc(b1-3)Gal(b1-4)[Fuc(a1-3)]GlcNAc
How it was run: as §1

[12] = target: Gal(b1-4)GlcNAc(b1-3)GalNAc
How it was run: as §1

[13] = target: Gal(b1-4)GlcNAc(b1-3)[Gal(b1-4)GlcNAc(b1-6)]GalNAc
How it was run: as §1

[14] = target: Gal(b1-4)GlcNAc(b1-6)GalNAc
How it was run: as §1

[15] = target: Gal(b1-4)GlcNAc(b1-6)[Gal(b1-3)]GalNAc
How it was run: as §1

[16] = target: Gal(b1-4)GlcNAc(b1-6)[Gal(b1-3)]GlcNAc
How it was run: as §1

Gal3S(b1-3)GalNAc = target: Gal3S(b1-3)GalNAc
How it was run: as §1

Gal3S(b1-3)GlcNAc = target: Gal3S(b1-3)GlcNAc
How it was run: as §1

[17] = target: Gal3S(b1-3)[Fuc(a1-4)]GlcNAc
How it was run: as §1

Gal3S(b1-4)Glc = target: Gal3S(b1-4)Glc
How it was run: as §1

Gal3S(b1-4)Glc6S = target: Gal3S(b1-4)Glc6S
How it was run: as §1

Gal3S(b1-4)GlcNAc = target: Gal3S(b1-4)GlcNAc
How it was run: as §1

Gal3S(b1-4)GlcNAc6S = target: Gal3S(b1-4)GlcNAc6S
How it was run: as §1

Gal3S6S(b1-4)GlcNAc = target: Gal3S6S(b1-4)GlcNAc
How it was run: as §1

Gal3S6S(b1-4)GlcNAc6S = target: Gal3S6S(b1-4)GlcNAc6S
How it was run: as §1

Gal4S(b1-4)GlcNAc = target: Gal4S(b1-4)GlcNAc
How it was run: as §1

Gal4S6S(b1-4)GlcNAc = target: Gal4S6S(b1-4)GlcNAc
How it was run: as §1

Gal6S(b1-4)Glc = target: Gal6S(b1-4)Glc
How it was run: as §1

Gal6S(b1-4)Glc6S = target: Gal6S(b1-4)Glc6S
How it was run: as §1

Gal6S(b1-4)GlcNAc = target: Gal6S(b1-4)GlcNAc
How it was run: as §1

GalNAc(a1-3)Gal = target: GalNAc(a1-3)Gal
How it was run: as §1

GalNAc(a1-3)GalNAc = target: GalNAc(a1-3)GalNAc
How it was run: as §1

[18] = target: GalNAc(b1-3)Gal(a1-4)Gal(b1-4)GlcNAc
How it was run: as §1

GalNAc(b1-4)GlcNAc = target: GalNAc(b1-4)GlcNAc
How it was run: as §1

Glc(a1-4)Glc = target: Glc(a1-4)Glc
How it was run: as §1

Glc(a1-6)Glc(a1-6)Glc = target: Glc(a1-6)Glc(a1-6)Glc
How it was run: as §1

Glc(b1-4)Glc = target: Glc(b1-4)Glc
How it was run: as §1

Glc(b1-6)Glc = target: Glc(b1-6)Glc
How it was run: as §1

GlcA(b1-3)Gal = target: GlcA(b1-3)Gal
How it was run: as §1

GlcA(b1-6)Gal = target: GlcA(b1-6)Gal
How it was run: as §1

[19] = target: GlcNAc(a1-3)Gal(b1-4)GlcNAc
How it was run: as §1

[20] = target: GlcNAc(a1-6)Gal(b1-4)GlcNAc
How it was run: as §1

[21] = target: GlcNAc(b1-2)Gal(b1-3)GlcNAc
How it was run: as §1

[22] = target: GlcNAc(b1-2)Man(a1-3)[GlcNAc(b1-2)Man(a1-6)]Man(b1-4)GlcNAc(b1-4)GlcNAc
How it was run: as §1

GlcNAc(b1-3)Gal = target: GlcNAc(b1-3)Gal
How it was run: as §1

[23] = target: GlcNAc(b1-3)Gal(b1-3)GalNAc
How it was run: as §1

GlcNAc(b1-3)Gal(b1-4)Glc = target: GlcNAc(b1-3)Gal(b1-4)Glc
How it was run: as §1

[24] = target: GlcNAc(b1-3)Gal(b1-4)GlcNAc
How it was run: as §1

[25] = target: GlcNAc(b1-3)Gal(b1-4)GlcNAc(b1-3)Gal(b1-4)GlcNAc
How it was run: as §1

GlcNAc(b1-3)GalNAc = target: GlcNAc(b1-3)GalNAc
How it was run: as §1

[26] = target: GlcNAc(b1-3)[GlcNAc(b1-4)][GlcNAc(b1-6)]GlcNAc
How it was run: as §1

[27] = target: GlcNAc(b1-3)[GlcNAc(b1-6)]Gal(b1-4)GlcNAc
How it was run: as §1

[28] = target: GlcNAc(b1-3)[GlcNAc(b1-6)]GlcNAc
How it was run: as §1

[29] = target: GlcNAc(b1-4)Gal(b1-4)GlcNAc
How it was run: as §1

[30] = target: GlcNAc(b1-4)GlcNAc(b1-4)GlcNAc
How it was run: as §1

[31] = target: GlcNAc(b1-4)GlcNAc(b1-4)GlcNAc(b1-4)GlcNAc(b1-4)GlcNAc
How it was run: as §1

[32] = target: GlcNAc(b1-4)GlcNAc(b1-4)GlcNAc(b1-4)GlcNAc(b1-4)GlcNAc(b1-4)GlcNAc
How it was run: as §1

[33] = target: GlcNAc(b1-4)[GlcNAc(b1-6)]GalNAc
How it was run: as §1

[34] = target: GlcNAc(b1-6)Gal(b1-4)GlcNAc
How it was run: as §1

GlcNAc(b1-6)GalNAc = target: GlcNAc(b1-6)GalNAc
How it was run: as §1

Kdn(a2-3)Gal(b1-3)GlcNAc = target: Kdn(a2-3)Gal(b1-3)GlcNAc
How it was run: as §1

B1: Alpha-agglutinin (Saccharomyces cerevisiae) (protein)
chain: MFTFLKIILWLFSLALASAININDITFSNLEITPLTANKQPDQGWTATFDFSIADASSIREGDEFTLSMPHVYRIKLLNSSQTATISLADGTEAFKCYVSQQAAYLYENTTFTCTAQNDLSSYNTIDGSITFSLNFSDGGSSYEYELENAKFFKSGPMLVKLGNQMSDVVNFDPAAFTENVFHSGRSTGYGSFESYHLGMYCPNGYFLGGTEKIDYDSSNNNVDLDCSSVQVYSSNDFNDWWFPQSYNDTNADVTCFGSNLWITLDEKLYDGEMLWVNALQSLPANVNTIDHALEFQYTCLDTIANTTYATQFSTTREFIVYQGR
Q: What does the source list for B1?
A: glycan array binding signal (z-score) [1]: -0.258; glycan array binding signal (z-score) [2]: -0.071; glycan array binding signal (z-score) [3]: 0.605; glycan array binding signal (z-score) [4]: 0.11; glycan array binding signal (z-score) [5]: 0.014; glycan array binding signal (z-score) [6]: 0.039; glycan array binding signal (z-score) (Gal(b1-4)Glc): 0.042; glycan array binding signal (z-score) (Gal(b1-4)Glc6S): 0.707; glycan array binding signal (z-score) (Gal(b1-4)GlcNAc): -0.251; glycan array binding signal (z-score) [7]: -0.203; glycan array binding signal (z-score) [8]: 3.24; glycan array binding signal (z-score) [9]: -0.269; glycan array binding signal (z-score) [10]: -0.257; glycan array binding signal (z-score) [11]: -0.234; glycan array binding signal (z-score) [12]: -0.22; glycan array binding signal (z-score) [13]: -0.227; glycan array binding signal (z-score) [14]: 0.136; glycan array binding signal (z-score) [15]: -0.271; glycan array binding signal (z-score) [16]: -0.04; glycan array binding signal (z-score) (Gal3S(b1-3)GalNAc): -0.123; glycan array binding signal (z-score) (Gal3S(b1-3)GlcNAc): -0.148; glycan array binding signal (z-score) [17]: -0.075; glycan array binding signal (z-score) (Gal3S(b1-4)Glc): -0.233; glycan array binding signal (z-score) (Gal3S(b1-4)Glc6S): 0.133; glycan array binding signal (z-score) (Gal3S(b1-4)GlcNAc): -0.188; glycan array binding signal (z-score) (Gal3S(b1-4)GlcNAc6S): -0.09; glycan array binding signal (z-score) (Gal3S6S(b1-4)GlcNAc): 0.002; glycan array binding signal (z-score) (Gal3S6S(b1-4)GlcNAc6S): 0.253; glycan array binding signal (z-score) (Gal4S(b1-4)GlcNAc): -0.149; glycan array binding signal (z-score) (Gal4S6S(b1-4)GlcNAc): 0.166; glycan array binding signal (z-score) (Gal6S(b1-4)Glc): -0.097; glycan array binding signal (z-score) (Gal6S(b1-4)Glc6S): 0.122; glycan array binding signal (z-score) (Gal6S(b1-4)GlcNAc): -0.19; glycan array binding signal (z-score) (GalNAc(a1-3)Gal): -0.162; glycan array binding signal (z-score) (GalNAc(a1-3)GalNAc): 0.033; glycan array binding signal (z-score) [18]: -0.237; glycan array binding signal (z-score) (GalNAc(b1-4)GlcNAc): -0.18; glycan array binding signal (z-score) (Glc(a1-4)Glc): -0.186; glycan array binding signal (z-score) (Glc(a1-6)Glc(a1-6)Glc): -0.226; glycan array binding signal (z-score) (Glc(b1-4)Glc): -0.248; glycan array binding signal (z-score) (Glc(b1-6)Glc): -0.204; glycan array binding signal (z-score) (GlcA(b1-3)Gal): -0.174; glycan array binding signal (z-score) (GlcA(b1-6)Gal): -0.245; glycan array binding signal (z-score) [19]: 0.511; glycan array binding signal (z-score) [20]: -0.27; glycan array binding signal (z-score) [21]: -0.133; glycan array binding signal (z-score) [22]: -0.208; glycan array binding signal (z-score) (GlcNAc(b1-3)Gal): -0.256; glycan array binding signal (z-score) [23]: -0.257; glycan array binding signal (z-score) (GlcNAc(b1-3)Gal(b1-4)Glc): -0.231; glycan array binding signal (z-score) [24]: -0.21; glycan array binding signal (z-score) [25]: -0.21; glycan array binding signal (z-score) (GlcNAc(b1-3)GalNAc): -0.265; glycan array binding signal (z-score) [26]: 0.203; glycan array binding signal (z-score) [27]: -0.255; glycan array binding signal (z-score) [28]: -0.234; glycan array binding signal (z-score) [29]: -0.194; glycan array binding signal (z-score) [30]: -0.242; glycan array binding signal (z-score) [31]: -0.236; glycan array binding signal (z-score) [32]: -0.142; glycan array binding signal (z-score) [33]: 5.52; glycan array binding signal (z-score) [34]: -0.236; glycan array binding signal (z-score) (GlcNAc(b1-6)GalNAc): -0.045; glycan array binding signal (z-score) (Kdn(a2-3)Gal(b1-3)GlcNAc): -0.218
